Laboratory results taken from the RNAGym collection of RNA variant scans (doi:10.1101/gad.245936.114).
This sample is rich in variants without activity.

B1: tRNA (parent)
chain: CUCUCGGUAGCCAAGUUGGUUUAAGGCGCAAGACUUUAAUUUAUCACUACGAAAUCUUGAGAUCGGGCGUUCGACUCGCCCCCGGGAGAUUUUUUCCUCGAGCAA

Variants of: B1
Test: nonsense suppression (GFP-seq) (ratio to wild type); higher = more function; SUP4oc tRNA, yeast GFP reporter sort-seq
In short: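 Raffinose/galactose medium with 80 mg/L adenine was used to grow yeast carrying genome-integrated tRNA variants (~3% random-mutation library), RFP, and a galactose-driven GFP ochre reporter. Cells went into GFP/RFP bins, which were Illumina-sequenced, and variants with ≥100 reads and ≥30 cells were scored. Nonsense suppression (GFPSEQ) is the per-bin median GFP/RFP weighted by estimated cell share and expressed relative to the unmutated parent tRNA.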

Row | Variant | nonsense suppression
1 | G19C U57A A62C | ≤ 0.026
2 | U20G G26U G32U | ≤ 0.026
3 | G19C A24G C27G C80G G85C | ≤ 0.026
4 | U20C U22C | 0.814
5 | U20G C82A | ≤ 0.026
6 | U20C C29A | ≤ 0.026
7 | U20C C34U C81G | ≤ 0.026
8 | U20C G61A | 0.212
9 | U20C C34U | ≤ 0.026
10 | G19U A62G | ≤ 0.026
11 | U20A C77U G78A C80A | ≤ 0.026
12 | U20G G26U A30G G84A | ≤ 0.026
13 | U20G A62U G69C | ≤ 0.026
14 | U20A A54U U76C | 0.24
15 | G19C A33G | ≤ 0.026
16 | U20A G25C | ≤ 0.026
17 | G19U A24G U55G | ≤ 0.026
18 | G19U U22G A87C | ≤ 0.026
19 | G19A U63C | ≤ 0.026
20 | G19A U63A | ≤ 0.026
21 | G19U U57G | ≤ 0.026
22 | G19U C27U U55C | ≤ 0.026
23 | U20C C75A C83A | ≤ 0.026
24 | G19U G78U | ≤ 0.026

Row | Variant | nonsense suppression
25 | G19U U21G A54U U70G | ≤ 0.026
26 | U20C A30G G69A C77A G86A | ≤ 0.026
27 | U20C A54G | 0.052
28 | G19C U21C G66C G84A G86A | ≤ 0.026
29 | G19C G65C G78A | ≤ 0.026
30 | G19U A23G C75U | ≤ 0.026
31 | U20G A31C A33G G67A C79G C82A | ≤ 0.026
32 | G19A G66U U70G | ≤ 0.026
33 | U20C U35G C56A U58G C79U | ≤ 0.026
34 | G19C A31G U57C G78C | ≤ 0.026
35 | G19C G65C C81U A89C | ≤ 0.026
36 | G19U G25U G61U | ≤ 0.026
37 | G19C G65C C81G A89C | ≤ 0.026
38 | U20G A30G G65C U71C U76G A89C | ≤ 0.026
39 | G19U C27A | ≤ 0.026
40 | U20G G59C U76C | ≤ 0.026
41 | U20A U55A | ≤ 0.026
42 | G19A U21G G25U | ≤ 0.026
43 | G19U U35C C72G | ≤ 0.026
44 | G19U C56G G69C U70G G78A | ≤ 0.026
45 | G19U A74C | ≤ 0.026
46 | U20C C27G | ≤ 0.026
47 | U20G U71G C81U | ≤ 0.026
48 | G19A A33U U71A | ≤ 0.026

Row | Variant | nonsense suppression
49 | G19U A23U | ≤ 0.026
50 | G19U A23C | ≤ 0.026
51 | U20A A23U C56G G61U G65A | ≤ 0.026
52 | U20A U57A | ≤ 0.026
53 | U20A U57C | ≤ 0.026
54 | U20G A54U | 1.04
55 | G19A C34G U70A | ≤ 0.026
56 | U20C C27U A33U G73A | ≤ 0.026
57 | G19U U22C U70C C79G | ≤ 0.026
58 | U20G G32U C34U U55C C56A | ≤ 0.026
59 | U20A U55A U71A | ≤ 0.026
60 | U20C A87G | 0.213
61 | U20A A54C U58A | ≤ 0.026
62 | U20G A24G G61C G69U | ≤ 0.026
63 | G19C G61A | ≤ 0.026
64 | G19C G61U | ≤ 0.026
65 | U20C A30G | 0.129
66 | G19C U55G | ≤ 0.026
67 | G19C U55A | ≤ 0.026
68 | G19A G66A | ≤ 0.026
69 | G19A G84C | ≤ 0.026
70 | U20G C77A C80U | ≤ 0.026
71 | U20C C64A | ≤ 0.026
72 | U20G U70A U71C | ≤ 0.026

Row | Variant | nonsense suppression
73 | G19U A24G G85A | ≤ 0.026
74 | U20C A31U | 0.0722
75 | U20G A23U G26C A30U G32U G69C | ≤ 0.026
76 | U20G A60U | 1.12
77 | G19C G28U U35G G84A | ≤ 0.026
78 | U20A A24G | ≤ 0.026
79 | G19C A31C U55C G61C A87C | ≤ 0.026
80 | U20A U63G | 0.106
81 | U20A U63A | 0.187
82 | U20A A60C G85U | ≤ 0.026
83 | G19C U76A A89U | ≤ 0.026
84 | U20A C29G A33U C82G | ≤ 0.026
85 | U20G A23U G88U | ≤ 0.026
86 | G19A U76G | ≤ 0.026
87 | U20G A24U C68U U70A | ≤ 0.026
88 | U20C C80U | 0.036
89 | U20A G61U | 0.217
90 | U20G C34A G88U | ≤ 0.026
91 | U20G A31U C68U | ≤ 0.026
92 | G19U A31U G85C | ≤ 0.026
93 | U20C U71A | ≤ 0.026
94 | G19U U76A | ≤ 0.026
95 | U20A G32U G84C | ≤ 0.026
96 | U20C | 0.848

Row | Variant | nonsense suppression
97 | U20A | 1.18
98 | U20G | 0.989
99 | G19U G85C | ≤ 0.026
100 | U20G G69A | ≤ 0.026
101 | U20G G69C | ≤ 0.026
102 | G19C G28U | ≤ 0.026
103 | G19U U21A G26U C34U U55G | ≤ 0.026
104 | G19A C34U | ≤ 0.026
105 | G19C G25C C34U | ≤ 0.026
106 | U20G C77U | ≤ 0.026
107 | G19C C29G G69A C72A | ≤ 0.026
108 | U20C A24U U57G C68U | ≤ 0.026
109 | G19A C64G C68U C82A | ≤ 0.026
110 | U20G A62C A74G | ≤ 0.026
111 | G19U G84A | ≤ 0.026
112 | U20A U55A A87C | ≤ 0.026
113 | U20A C79A | ≤ 0.026
114 | G19C A33C G73U C77A | ≤ 0.026
115 | U20A C34G C80G | ≤ 0.026
116 | U20G A62U A87G | ≤ 0.026
117 | U21A A23C | ≤ 0.026
118 | U20G U21G A30U C68G | ≤ 0.026
119 | U20C G26U A30U C34A U58G | ≤ 0.026
120 | U20A G69A | ≤ 0.026

Row | Variant | nonsense suppression
121 | U20G C29G U35G G67C | ≤ 0.026
122 | U20C A33U G59U A89C | ≤ 0.026
123 | U20C A33G C34U C81G | ≤ 0.026
124 | G19U A23U C34G A87G | ≤ 0.026
125 | G19C G26A G66U U76G G88U | ≤ 0.026
126 | G19C G84U | ≤ 0.026
127 | U20C U76C G78C | ≤ 0.026
128 | U20C A24G G67A | ≤ 0.026
129 | G19C G78A | ≤ 0.026
130 | U20C G84A | ≤ 0.026
131 | U20G A23U A54U G61A | ≤ 0.026
132 | G19C C68G | ≤ 0.026
133 | G19C C68U | ≤ 0.026
134 | U20C G28A | 0.192
135 | U20A G85U | 0.0676
136 | U20G U58G | ≤ 0.026
137 | G19A G78C | ≤ 0.026
138 | G19U A30U A31C A33U | ≤ 0.026
139 | U20C A62G | ≤ 0.026
140 | G19C G32C G67C | ≤ 0.026
141 | G19U A33G | ≤ 0.026
142 | U20G A23C | ≤ 0.026
143 | G19U C27G G28A C68U G85U | ≤ 0.026
144 | U20A U22G G32U C56U C79G | ≤ 0.026

Row | Variant | nonsense suppression
145 | G19C U21A C27U | ≤ 0.026
146 | U20C A24C | 0.249
147 | G19C U21G U76G | ≤ 0.026
148 | G19U U63G G67C | ≤ 0.026
149 | U20G G59U | ≤ 0.026
150 | U20G G59A | ≤ 0.026
151 | G19A C64A C82G | ≤ 0.026
152 | U20G G26C | ≤ 0.026
153 | G19U A31G C75G | ≤ 0.026
154 | G19C C27G A33U G88C | ≤ 0.026
155 | G19U G28A | 0.0287
156 | G19U G26C U57C | ≤ 0.026
157 | G19U G25C G66C C81G G86C | ≤ 0.026
158 | G19C U21C G32U U57C U70C C72G | ≤ 0.026
159 | U20G A23C A33G | ≤ 0.026
160 | U20A U35G U57A | ≤ 0.026
161 | G19C G32U A54U U76C C82U A89G | ≤ 0.026
162 | U20G A24C U76C C81A | ≤ 0.026
163 | U20G G25A G61U G86U | ≤ 0.026
164 | G19U G67A | ≤ 0.026
165 | U20G A23C A62G | ≤ 0.026
166 | G19C A24U A74C | ≤ 0.026
167 | G19A A60C | ≤ 0.026
